# Reference: PubChem BioAssay AID1645882 (National Center for Advancing Translational Sciences (NCATS), 2021)
# Out of some 16,000 compounds screened, about 120 (0.75%) were called active. Inconclusive results (about 4%) are left out. Calls come from the whole dose curve; as a rule, active = well fitted inhibition curve with a large enough effect; inconclusive = small, poorly fitted or top-dose-only effect; inactive = no such curve, though single readings can be large or run the other way. The list shows a part of the results. Where a SMILES comes first, the peptide text is derived from it.
# Biological target: Rap guanine nucleotide exchange factor 3 (Homo sapiens) (UniProt O95398)
# Test: Validation qHTS for antagonist of cAMP-regulated guanine nucleotide exchange factor 3 (EPAC1);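 note: plate controls were DMSO for no effect and ATA control for full effect; nearly all actives have a fitted effect of over 75% in size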
# Settings: EPAC1 Rap1B-BODIPY-GDP exchange, fluorescence; series mostly up to 150 µM; activity change, negative = inhibition: at the top concentration
# In short: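 EPAC1 (100 nM) mixed with 250 nM RAP1B-BODIPY-GDP and 50 uM GDP; compounds in concentration series, 5 min at room temperature. Fluorescence (ex 480/em 540 nm) read every 5 min for 30 min; normalized to ATA control and DMSO.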
# UniProt O95398, sequence (O95398 whole entry, looked up): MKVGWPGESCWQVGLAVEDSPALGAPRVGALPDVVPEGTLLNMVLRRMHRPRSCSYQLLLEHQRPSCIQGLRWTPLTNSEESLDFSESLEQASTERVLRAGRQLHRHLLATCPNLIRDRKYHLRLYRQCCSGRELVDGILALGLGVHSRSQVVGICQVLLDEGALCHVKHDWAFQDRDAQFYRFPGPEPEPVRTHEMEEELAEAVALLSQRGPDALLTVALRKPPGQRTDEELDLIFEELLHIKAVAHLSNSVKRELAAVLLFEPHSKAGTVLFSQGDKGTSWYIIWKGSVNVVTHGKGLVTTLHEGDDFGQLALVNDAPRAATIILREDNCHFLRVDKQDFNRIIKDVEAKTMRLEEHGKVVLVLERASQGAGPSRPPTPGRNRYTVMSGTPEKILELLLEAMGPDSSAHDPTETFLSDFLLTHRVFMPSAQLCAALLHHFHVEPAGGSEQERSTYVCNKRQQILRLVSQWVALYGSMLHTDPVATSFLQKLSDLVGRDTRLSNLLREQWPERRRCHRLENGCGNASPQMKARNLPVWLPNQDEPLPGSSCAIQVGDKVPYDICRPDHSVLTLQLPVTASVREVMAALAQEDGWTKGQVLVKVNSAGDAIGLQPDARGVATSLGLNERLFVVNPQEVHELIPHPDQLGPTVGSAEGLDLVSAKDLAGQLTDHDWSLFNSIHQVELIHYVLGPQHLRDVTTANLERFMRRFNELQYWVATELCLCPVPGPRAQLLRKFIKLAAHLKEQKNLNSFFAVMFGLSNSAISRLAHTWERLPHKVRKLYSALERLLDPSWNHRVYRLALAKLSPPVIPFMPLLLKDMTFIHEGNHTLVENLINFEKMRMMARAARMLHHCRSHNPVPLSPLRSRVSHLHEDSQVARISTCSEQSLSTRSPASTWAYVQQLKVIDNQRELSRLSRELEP
row,Structure (SMILES),"activity change, negative = inhibition"
1,Clc1ccc2nsnc2c1NC1=NCCN1,inactive
2,CC(C)C1=CC2=CC[C@@H]3[C@](C)(CO)CCC[C@]3(C)C2CC1 (some centres not stated),inactive: -22.9%
3,O=[N+]([O-])c1c(Cl)cccc1-c1c[nH]cc1Cl,inactive: -2.69%
4,N#Cc1ccccc1-c1ccc2ncnc(NCc3ccccc3)c2c1,inactive: 2.11%
5,Cc1cc2cc3c(C)cc(=O)oc3c(C)c2o1,inactive
6,CC(=O)Nc1c(I)cc(I)c(C(=O)O)c1I,inactive: 18.6%
7,CN1C(C(=O)Nc2ccccn2)C(=O)c2sc(Cl)cc2S1(=O)=O (configuration not stated),inactive: 3.21%
8,CO/N=C(/C(=O)N[C@@H]1C(=O)N2C(C(=O)O)=C(COC(N)=O)CS[C@H]12)c1ccco1,inactive
9,CC(=O)Nc1nnc(S(N)(=O)=O)s1,inactive
10,COc1cccc(C(=O)NC(C)c2nnc3n2CCN(CC=C(C)C)CC3)c1 (configuration not stated),inactive: 2.04%
11,COC1=CC(=O)C(O)=C/C1=C\C=C\c1ccccc1,inactive: -14.6%
12,CC(C)Oc1ccc2c(=O)c(-c3ccccc3)coc2c1,inactive
13,O=C(Oc1ccccc1)N1CCC2(CC1)CN(c1ccccc1)C2,inactive: 2.94%
14,C[N+](C)(C)CC(O)CC(=O)[O-] (configuration not stated),inactive: 24.6%
15,CCNc1ncc2nc(-c3ccc(F)cc3)c(=O)n(CCC#N)c2n1,inactive: 25.9%
16,NC(N)=N[C@@H](CCC(=O)O)C(=O)O,inactive: 9.13% [at 75.8 µM]
17,N#C/C(=C1/SC[C@@H](c2ccc(Cl)cc2Cl)S1)n1ccnc1,inactive
18,COc1cc([C@H]2Oc3cc([C@H]4Oc5cc(O)cc(O)c5C(=O)[C@@H]4O)ccc3O[C@@H]2CO)ccc1O,inactive: 21.7%
19,CCCCOc1cc(C(=O)OCCN(CC)CC)ccc1N,inactive: 12.7% [at 75.8 µM]
20,CN(C)c1ncc2nc(-c3ccc(Cl)cc3)c(=O)n(CCC#N)c2n1,inactive: 19.8%
21,COc1ccc(C(=O)N2CCC3(CCCN(C(c4ccccc4)c4ccccc4)C3)CC2)cc1,inactive: -3.03%
22,Cc1nc2n(c(=O)c1CCN1CCC(c3noc4cc(F)ccc34)CC1)CCC[C@H]2O,inactive: 33.4%

row,Structure (SMILES),"activity change, negative = inhibition"
1,CN1CCCCC1C(=O)N1CCC(Oc2cccc(CN3CCN(c4ccccn4)CC3)c2)CC1 (configuration not stated),inactive: 9.83%
2,CCCCC[C@H](O)/C=C/[C@H]1C(=O)C=C[C@@H]1C/C=C\CCCC(=O)O,inactive: 36% [at 15.3 µM]
3,CN(C)C(=O)c1ccc(-c2ccc3ncnc(NCc4cccs4)c3c2)cc1,inactive: -18.6%
4,Nc1c[n+](N2CCOCC2)no1,inactive: 18.8%
5,CNc1nc(-c2cccc(C#N)c2)nc2ccccc12,inactive: 4.64%
6,CC(C)(C)c1cc(O)c(C(C)(C)C)cc1O,inactive
7,C=Cc1ccc(S(=O)(=O)O)cc1,inactive: 15.8%
8,CCC1CN(CC(=O)NC(C)c2cn(C)nc2C)Cc2cc(OC)ccc2O1 (configuration not stated),inactive: 13.8%
9,CC(C)NC(=O)N1CCC2(CC1)CCN(C(=O)c1cccc(F)c1)CC2,inactive: 2.54%
10,COc1cc(O)c2c(=O)cc(C)oc2c1CC=C(C)C,inactive: -19.2%
11,COC(=O)N1CCC2(CCCN(c3ncccn3)C2)CC1,inactive: 9.34%
12,O=C1CC[C@H](N2C(=O)c3ccccc3C2=O)C(=O)N1,inactive: 2.71%
13,OC/C=C/c1ccccc1,inactive: 4.11%
14,CCOC(=O)C1=C(N)Oc2ccc(Br)cc2C1C(C#N)C(=O)OCC (configuration not stated),inactive: 12.9% [at 201 µM]
15,COc1ccc2c(c1)-c1nc(-n3ncc(C(=O)N(C)CC4CCCN(C)C4)c3C3CC3)ncc1CC2 (configuration not stated),inactive: 16.2%
16,CCOC(=O)N1CCN(C(=O)c2ccc(-c3ccccc3OC)nc2N2CCC(N3CCCC(CO)C3)CC2)CC1 (configuration not stated),inactive: 17.4%
17,C1CCC(N=C(NC23CC4CC(CC(C4)C2)C3)N2CCOCC2)CC1,inactive: 16.4% [at 75.8 µM]
18,NC1CCN(O)C1=O (configuration not stated),inactive: -3.41% [at 75.8 µM]
19,Cn1c(=O)c(CCc2ccccc2)nc2cnc(N3CCNCC3)nc21,inactive: 10.4%
20,Cc1ccccc1CN1[C@@H]2c3ccccc3C[C@@H]2OCCS1(=O)=O,inactive: -5.44%
21,CC1(C)SC2C(NC(=O)COc3ccccc3)C(=O)N2C1C(=O)O (configuration not stated),inactive: 9.69%
22,C[C@@]12CCC(OC(=O)c3ccccc3)CC1CCc1ccccc12 (some centres not stated),inactive: -0.163%

row,Structure (SMILES),"activity change, negative = inhibition"
1,COC(=O)[C@H](Cc1ccccc1)NC(=O)[C@@H](N)CC(=O)O (H-Asp-Phe-OMe),inactive
2,O=C(NC[C@H]1CCCCN1)c1cc(OCC(F)(F)F)ccc1OCC(F)(F)F,inactive: -3.95%
3,C=C1O[C@@](CO)(n2cnc3c(N)ncnc32)[C@H](O)[C@@H]1O,inactive: 19.8% [at 201 µM]
4,CN(C)Cc1ccccc1-c1cc(-n2ccnc2)ncn1,inactive: 8.23%
5,CN(C)Cc1ccccc1-c1cc(NCc2ccccc2)ncn1,inactive: 14.6%
6,c1ccc(Nc2ncncc2-c2ccc3c(c2)OCO3)cc1,inactive: 1.53%
7,COC(=O)[C@H]1[C@@H]2C[C@@H]3c4[nH]c5ccccc5c4CCN3C[C@H]2CC[C@H]1O,inactive: 9.86%
8,COc1cc(-c2noc(C)c2C#Cc2ccc(N)cc2)cc(OC)c1OC,inactive: -0.782%
9,Cc1cccc(CNc2ccnc(-c3cccc(NS(C)(=O)=O)c3)n2)c1,inactive: 8.68%
10,NC1(C(=O)O)CCc2cc(P(=O)(O)O)ccc21 (configuration not stated),inactive: -1.16%
11,COC(=O)[C@@H]1CCCN1Cc1ccc2c(c1)CN(Cc1ccccc1C)CCO2,inactive: 13%
12,Cc1ccccc1N=Nc1ccc(N=Nc2c(O)ccc3ccccc23)c(C)c1,inactive: 9.54%
13,O=C(CCC1CCN(Cc2ccccc2)CC1)c1ccc2c(c1)NCCCC2,inactive: 7.97%
14,O=C(O)c1c2ccccc2cc2ccccc12,inactive
15,CO/N=C(\C(=O)N[C@@H]1C(=O)N2C(C(=O)O)=C(COC(C)=O)CS[C@H]12)c1csc(N)n1,inactive: 10.9% [at 75.8 µM]
16,CN(Cc1ccco1)c1nc(-c2ccccc2Cl)nc2ccccc12,inactive: 5.28%
17,Cc1cnc(C)c(-c2cc(F)cc3c2OC(CNC(=O)c2cc(Cl)ccc2F)C3)n1 (configuration not stated),inactive: 6.78%
18,COc1cccc(CNC(=O)c2c(OC)cc(=O)n3c2CCN(C(=O)c2ccc(C)s2)CC3)c1,inactive: 2.81%
19,Cc1ccccc1-c1cncnc1N(C)Cc1ccco1,inactive: 17.8%
20,CCCCCCCCCCCCCCCCCCN(CCCCCCCCCCCCCCCCCC)c1ccc(C=O)cc1,inactive: 6.65%
21,CN(C)c1ccc(-c2cncnc2NCc2ccccc2)cc1,inactive: 27.5%
22,COc1ccc2c(c1)OC(C)CN(CC(=O)NCc1cn[nH]c1-c1ccc(F)cc1)C2 (configuration not stated),inactive: 11.8%

row,Structure (SMILES),"activity change, negative = inhibition"
1,O=C(O)[C@@H]1[C@H]2C[C@H]3c4[nH]c5ccccc5c4CCN3C[C@@H]2CC[C@@H]1O,inactive: 0.446% [at 75.8 µM]
2,C=CC1=C(C)C2=Cc3c(C=C)c(C)c4[n]3[Sn+2][n]3c(c(C)c(CCC(=O)O)c3=CC3=NC(=C4)C(C)=C3CCC(=O)O)=CC1=N2,inactive: -5.34%
3,CC(C)c1c(C(=O)NCc2ccccn2)cnn1-c1nccc(-c2ccccc2F)n1,inactive: 3.43%
4,Cc1ccccc1-c1cnc(-c2ccncc2)nc1C1CCCN(Cc2ccccc2O)C1 (configuration not stated),inactive: -14.7%
5,O=C(NCc1nnc2n1CCN(Cc1cc3c(cc1Cl)OCO3)CC2)c1cccc(F)c1,inactive: -10.6%
6,COc1cc(CNC(=O)CCCC/C=C/C(C)C)ccc1O,inactive
7,O=C(NCCCN1CCOCC1)c1ccc(Cl)cc1,inactive: 1.17%
8,O=C1CC[C@@H](O)CCN1CC[C@H](Sc1ccc(Br)cc1)c1ccccc1,inactive: 9.09%
9,COc1ccc(SC[C@H](Cc2ccccc2)N2CC[C@@H](C(C)(C)C)CCC2=O)cc1,inactive: -4.55%
10,OC(C#CCN1CCCC1)(c1ccccc1)c1ccccc1,inactive: 5.25%
11,O=C(NCCCN1CCCCCC1)[C@@H](c1ccccc1)C1CCCCC1,inactive: 5.37%
12,Cc1ccccc1-c1nc(N(C)C)c2ccccc2n1,inactive: 5.83%
13,C=CCn1c(=O)c2c(nc(-c3ccccc3)n2C)n(C)c1=O,inactive: 6.56%
14,CCNc1ncc2nc(-c3ccc(F)cc3)c(=O)n(C)c2n1,inactive: -3.5%
15,Cc1cnc(CNc2ncnc3ccc(-c4ccc(N(C)C)cc4)cc23)cn1,inactive: -3.79%
16,COCCn1c(=O)c(-c2ccccc2)nc2cnc(OCc3ccccc3)nc21,inactive: -11%
17,O=C1c2ccccc2C(=O)c2c(O)c(O)cc(O)c21,inactive: -23.1%
18,COC1C=CC23c4cc5c(cc4CN(CC2O)C3C1)OCO5 (configuration not stated),inactive: 5.5%
19,CCCOC(=O)c1ccc(O)cc1,inactive
20,COCCn1c(=O)c(-c2cn(C)c3ccccc23)nc2cnc(Oc3cccc(Cl)c3)nc21,inactive: -1.76%
21,COc1cc2ccc(=O)oc2c(O)c1O,inactive
22,O=C(c1ccco1)N1CCC2(CC1)CN(Cc1cc(C(F)(F)F)cc(C(F)(F)F)c1)C2,inactive: -2.2%

row,Structure (SMILES),"activity change, negative = inhibition"
1,COc1cc2c(C(=O)c3ccccc3)c3c4c(cc(OC)c(OC)c4c2cc1OC)CCN3C,inactive: -2.41%
2,CC(CNC1CCCCC1)OC(=O)c1ccccc1 (configuration not stated),inactive: 22% [at 75.8 µM]
3,CC(C)C[C@@H](CO)N1CCN(C)CCC1=O,inactive: 10.7%
4,O=C(O)c1cccc(-c2noc(-c3ccccc3F)n2)c1,inactive: 1.57%
5,Nc1ccc(S(=O)(=O)Nc2nccs2)cc1,inactive
6,O=C1c2c(O)cccc2[C@H]([C@@H]2O[C@H](CO)[C@@H](O)[C@H](O)[C@H]2O)c2cc(CO)cc(O)c21,inactive: 4.72%
7,Cc1ccccc1-c1nccc(-n2ccnc2)n1,inactive: 22.8%
8,CCC(O)CNC(=O)c1cnn(-c2ncc3c(n2)-c2ccccc2CCC3)c1C1CC1 (configuration not stated),inactive: 7.89%
9,CN[C@H]1CC[C@@H](c2ccc(Cl)c(Cl)c2)c2ccccc21,inactive
10,CCOC(=O)C(Cc1ccc(O)cc1)NC(C)=O (configuration not stated),inactive: -0.54%
11,Cc1c(C(=O)NCC2CCCN(C)C2)cnn1-c1nccc(-c2ccco2)n1 (configuration not stated),inactive: 16.6%
12,COCC(=O)Nc1cc(C(=O)N2CCSCC2)cc2nc(-c3ccccc3)n(C)c12,inactive: 16.7%
13,CC1(C)S[C@@H]2[C@H](NC(=O)C(C(=O)O)c3ccsc3)C(=O)N2[C@H]1C(=O)O (some centres not stated),inactive: 7.44%
14,CC1CC(=O)NN=C1c1ccc(NCC(C)(C)NCC(O)COc2cc(Cl)ccc2C#N)cc1 (configuration not stated),inactive: 21.3%
15,COCCNC(=O)COc1ccc(OCCNC[C@H](O)COc2ccccc2)cc1,inactive: 22.7%
16,CCOC(=O)/C=C/c1ccc2c(c1)S(=O)(=O)N(c1cccc(OC)c1)[C@H]2CC(=O)OCC,inactive: -4.02%
17,COc1ccc(O)c(CN2CCC3(CCC(CNC(=O)C4CCCO4)O3)CC2)c1 (configuration not stated),inactive: 18.3%
18,CC(C)NC(=O)N1CC[C@@]2(CCCN(C(=O)c3cccc(F)c3)C2)C1,inactive: 0.159%
19,C[C@@H]1C[C@H]2C3C[C@H](F)C4=CC(=O)C=CC4(C)[C@@]3(F)[C@@H](O)CC2(C)[C@@]1(O)C(=O)COC(=O)C(C)(C)C (some centres not stated),inactive: 26.3%
